Data as given in the supplement of paper PMC4166925.
± gives the standard deviation of the averaged measurements. The full ranking holds about 33,000 sequences; the median of “E-score (dimensionless, -0.5 to 0.5)” is about -0.049, and the highest 2% start at about 0.37. The list shows a part of the results.

Tested on: T1, PmTbr T-box DNA-binding domain (GST fusion)
T1 sequence: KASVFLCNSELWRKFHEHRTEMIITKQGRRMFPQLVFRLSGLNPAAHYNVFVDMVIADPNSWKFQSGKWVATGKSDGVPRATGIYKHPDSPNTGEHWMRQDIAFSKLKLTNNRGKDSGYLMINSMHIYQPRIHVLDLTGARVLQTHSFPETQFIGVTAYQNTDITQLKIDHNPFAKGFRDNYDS
Experiment: PBM E-score of 8-mer (E-score (dimensionless, -0.5 to 0.5)); Tbr is Tbrain of the sea star Patiria miniata (Pm) or the sea urchin Strongylocentrotus purpuratus (Sp); higher = stronger binding preference; most listed sequences are background and not binding sites
Conditions: the construct has about 5 more residues each side
Protocol: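 Universal protein-binding microarray (Agilent AMADID 016060, 60-bp probes with a 35-bp variable region) incubated with 200 nM GST-fused Patiria miniata Tbr T-box DNA-binding domain (residues 272-466) in PBS pH 7.5. Scored for every ungapped 8-mer (given with its reverse complement) by the Universal PBM Analysis Suite as E-score (modified Wilcoxon-Mann-Whitney enrichment, range -0.5 to 0.5; >0.45 counts as bound) and Z-score of median probe intensity. Two replicate arrays (datasets 1 and 2).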
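Further: 200 nM protein in PBS on universal arrays averaged over duplicate arrays.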

Sequence	PBM E-score of 8-mer
CCCATCGG	-0.195 ± 0.024
AGGCTCTA	-0.144 ± 0.061
ATCGCTCC	-0.0423 ± 0.0074
TCAAGAGA	-0.172 ± 0.012
TCATATCA	0.0153 ± 0.0093
CCATCCAC	0.00695 ± 0.069
CCGCAACG	-0.264 ± 0.075
ATTATCAA	-0.0417 ± 0.055
AACTGATC	-0.2 ± 0.0057
ATAGGGTG	0.231 ± 0.035
GTTGGATA	0.108 ± 0.047
ACTATGAC	0.0904 ± 0.059
ATTTGTCG	0.262 ± 0.027
ACGAACTG	0.0451 ± 0.03
AAATTACG	-0.0256 ± 0.05
AGGGATGC	-0.183 ± 0.046
ACGTAAGT	0.0948 ± 0.03
AAGCCTTG	-0.0225 ± 0.02
CCGGAGCC	-0.112 ± 0.18
GCCTGGCC	-0.0923 ± 0.038
ATACGATA	0.0398 ± 0.072
ACCTTGAA	0.0851 ± 0.016
CCTATCCA	-0.209 ± 0.054
GACTATGC	-0.0692 ± 0.011
TCACATCA	0.255 ± 0.009

Sequence	PBM E-score of 8-mer
CCTCATGA	-0.144 ± 0.08
ACCTAGTC	0.119 ± 0.0012
AGGGCTAT	-0.246 ± 0.0093
TACACGAA	-0.0991 ± 0.0076
ATCCGTTG	-0.0623 ± 0.061
GACCACCC	-0.06321 ± 0.00032
ATGGATGA	-0.197 ± 0.058
CAAGAGGG	-0.126 ± 0.0039
TACGGGAA	-0.23 ± 0.017
AGGAGTTA	-0.127 ± 0.016
CGGGAGAA	-0.134 ± 0.018
AACGTATG	-0.179 ± 0.018
ACCACCCG	0.189 ± 0.017
GAGGACAA	-0.0269 ± 0.021
CCCCGCGA	0.1754 ± 0.0015
CCCTGACA	0.244 ± 0.048
ATAGCCCA	-0.0833 ± 0.05
TACAACGA	-0.18 ± 0.034
CAATTTGA	-0.128 ± 0.16
CGGAGGTC	-0.141 ± 0.044
CGAAACCC	-0.0661 ± 0.019
ACACGCTG	0.153 ± 0.0079
ATAAGCTC	-0.0944 ± 0.13
ACTTCGCT	0.121 ± 0.023
CATAGTTA	0.0714 ± 0.0011

Sequence	PBM E-score of 8-mer
CTGTCGGC	0.137 ± 0.02
AGCGTGGC	0.0403 ± 0.0048
AATCTATG	-0.219 ± 0.0052
CCAGCTGC	-0.0939 ± 0.066
GATTTGAC	0.143 ± 0.074
TATGGTGA	0.074 ± 0.043
CGATCCCG	-0.137 ± 0.016
GAGGGGCC	-0.226 ± 0.01
CTCCGCCA	-0.0826 ± 0.079
AATATACT	-0.236 ± 0.063
CCTTACAA	-0.0184 ± 0.028
AGTAGTAG	-0.0705 ± 0.015
ACTTGCCC	0.0722 ± 0.024
GCTCAGCC	-0.289 ± 0.078
GGGACCAA	-0.186 ± 0.027
CAAACTAA	-0.115 ± 0.05
AAGGATTC	-0.18 ± 0.066
ACCTTCCC	-0.0548 ± 0.0098
CTAGCACC	0.449 ± 0.006
AAGTTCAG	-0.258 ± 0.043
GACTGGTA	0.0439 ± 0.029
AGCACTTG	0.242 ± 0.011
AAACGCAG	-0.00768 ± 0.0065
AGTTAAGA	-0.162 ± 0.076
CGCTGACC	-0.0927 ± 0.15

Sequence	PBM E-score of 8-mer
GACCATAC	-0.219 ± 0.028
GGCGACCC	-0.0415 ± 0.017
ACGTTGGC	0.195 ± 0.017
CGTATTGC	-0.15 ± 0.014
CGGGAATA	-0.078 ± 0.027
AGCAGAAC	-0.287 ± 0.013
GGGGTTAC	-0.192 ± 0.024
CTTGGACC	-0.1866 ± 0.00072
CGGGCGAC	0.156 ± 0.0072
AGTCGTGA	0.169 ± 0.018
CTATGTGC	0.142 ± 0.047
ACTAGAGA	-0.268 ± 0.051
CCGGTCTC	-0.122 ± 0.01
AGCATGCG	-0.095 ± 0.047
AGTACTCA	-0.0666 ± 0.012
GGGGGTTA	-0.158 ± 0.1
CCGGGATA	-0.0952 ± 0.054
CGCCGTCC	-0.149 ± 0.026
GTACCGGA	-0.226 ± 0.049
CTACTATA	-0.348 ± 0.016
ACAAGGAA	-0.102 ± 0.11
GCGCGCAA	0.17 ± 0.025
ACAATCCC	0.0507 ± 0.0081
AAGTTGGT	0.00318 ± 0.069
CAAGTGTA	0.178 ± 0.035

Sequence	PBM E-score of 8-mer
AAGATGGG	-0.073 ± 0.026
CGTTCTAA	-0.0911 ± 0.12
TCACCCAA	0.146 ± 0.045
GCCGTCGA	-0.044 ± 0.08
GGCTCCCA	-0.0705 ± 0.028
ATGGAGGG	-0.0626 ± 0.039
ATTGCCGC	0.0867 ± 0.0053
CAACCACC	0.0716 ± 0.0078
AGTCCATG	0.0305 ± 0.037
ACCTGAAC	0.002 ± 0.024
GCTGATCC	-0.0935 ± 0.017
AGAATAAC	-0.00186 ± 0.026
AAAATATC	0.121 ± 0.063
CGGTACAA	-0.0942 ± 0.04
AGAAGCCT	-0.175 ± 0.026
CGGCCCGC	-0.191 ± 0.011
CGGTAGAG	0.0253 ± 0.0033
AGGCTGGC	-0.105 ± 0.011
AGGCCTTG	-0.324 ± 0.084
AAACAACG	-0.0631 ± 0.024
GAGGTCGA	-0.075 ± 0.079
GTGGATAA	0.00437 ± 0.013
AACAACCT	0.134 ± 0.01
AGGGTATC	-0.07494 ± 0.00061
AACACGTC	0.399 ± 0.021

Sequence	PBM E-score of 8-mer
GGTAGAAA	-0.0423 ± 0.066
GCATCTCC	-0.172 ± 0.042
CGCCAACC	0.197 ± 0.0065
ACACTCTC	0.361 ± 0.0087
AGCGAAAC	-0.0654 ± 0.014
CCGCCACA	0.143 ± 0.069
CTTTTTCC	-0.246 ± 0.052
AGATATAT	-0.0934 ± 0.11
ATTGATCA	-0.0998 ± 0.043
AGTGACCC	0.05099 ± 9.9e-05
CGCGATTA	0.258 ± 0.031
CCCAAACA	-0.167 ± 0.017
AATATCGC	0.255 ± 0.0089
CCACGCGC	0.194 ± 0.0076
CCGTTGTA	-0.058 ± 0.026
GCGTGTAC	0.0966 ± 0.026
GAGTTTCA	-0.0913 ± 0.042
GATTTCGC	0.288 ± 0.012
AGTACGTC	-0.0533 ± 0.09
AATACTTG	-0.0724 ± 0.093
CACGCAGC	-0.0161 ± 0.1
ATAGATCG	-0.00864 ± 0.015
CTCTAAAA	-0.108 ± 0.0074
CAAGTTAG	-0.0266 ± 0.021
GCAGCTAC	-0.038 ± 0.025

Sequence	PBM E-score of 8-mer
CGCCTAAA	0.124 ± 0.038
AGGTCAGC	-0.0928 ± 0.038
CCCATGCG	-0.212 ± 0.063
TATATCAA	-0.217 ± 0.045
AAGATTTA	0.023 ± 0.04
CCCAACAC	0.385 ± 0.0085
CACTATGA	0.155 ± 0.034
ACTATAAT	-0.22 ± 0.028
AGGAAATC	-0.104 ± 0.033
CCACAAAA	0.184 ± 0.022
ACGTTGCG	0.117 ± 0.016
CCTGTAAC	0.181 ± 0.0083
GCCATAGC	-0.087 ± 0.04
AAATCATC	0.12 ± 0.033
AAAAATGT	0.104 ± 0.079
AGACTCTG	-0.158 ± 0.024
AAGTAGCT	0.0198 ± 0.1
GTTGTATA	-0.15 ± 0.013
AAGAGGCA	-0.191 ± 0.024
AATGATCC	-0.152 ± 0.052
AGAACAAG	-0.0407 ± 0.016
CCAAGCAA	0.0742 ± 0.025
